Where two headings read alike, the source gives them in different places.

The series concerns cellular ATP levels. Particulars: for ATP (composite Z-score): normalized score vs mock-treated (DMSO) wells.
The mark [1] stands for this setting: normalized composite Z-score vs mock-treated (DMSO) wells, Conc 20 μM.
Setting [2] is: composite Z-score vs DMSO wells, Conc 20 μM.
[3] abbreviates: composite Z-score vs DMSO, Conc 20 μM.
Where [4] appears, read: 20 μM, composite Z-score vs DMSO.
The mark [5] stands for this setting: composite Z-score vs mock-treated (DMSO) wells, Conc 20 μM.

Compound `CC1=C2C(O)C(=O)OC3CC4C(C)(C)C(=O)C=C[C@]4(C)C(CC1)[C@]23C` (stereo partly shown) [merogedunin] showed an ATP under setting [1] of 2.064.

Regarding `CC(C)NCC(O)c1cc(O)cc(O)c1` (stereo not shown) [metaproterenol], the ATP under setting [2] worked out at 0.018.

In turn, `C[C@H](N)[C@H](O)c1cccc(O)c1` [metaraminol] came in with an ATP under setting [3] of 1.865.

Take `COC(=O)Nc1nc2ccc(SC(C)C)cc2[nH]1` [methiazole, reference compound]: for the setting “Table 4, C2C12 myotubes, 48 h, composite Z-score”, the ATP is reported as −0.555.

Under setting [3], `CNC(=O)ON=C(C)SC` [methomyl] displayed an ATP of −0.211.

The compound `COc1c2occc2cc2ccc(=O)oc12` [methoxsalen] returned an ATP under setting [4] of 0.776.

`COc1c2occc2cc2ccc(=O)oc12` [methoxy-8-psoralen]: where the note is “18.5 μM, composite Z-score vs DMSO”, the ATP was −0.070.

Take `CON` [methoxyamine]: the ATP under setting [2] is 0.789.

The compound `COC(=O)c1c(C)cc(O)cc1O` [methyl orsellinate] displayed an ATP under setting [3] of 0.487.

In turn, `COP(=S)(OC)Oc1ccc([N+](=O)[O-])cc1` [methyl parathione] showed an ATP of 0.145.

Under setting [1], `COc1c2c(cc3occ(-c4ccc5c(c4)OCO5)c(=O)c13)OC(C)(C)C=C2` [methyl robustone, reference compound] registered an ATP of −0.638.

The compound `Cc1cc(=O)[nH]c(=S)[nH]1` [methylthiouracil] registered an ATP under setting [4] of 0.145.

The compound `CN1CCCC(CC2c3ccccc3Sc3ccccc32)C1` (stereo not shown) [metixene] had an ATP of −1.165.

Under setting [4], `Clc1ccc(C(c2ccccc2Cl)C(Cl)Cl)cc1` (stereo not shown) [mitotane] displayed an ATP of 0.341.

On to `CCOC(=O)[N-]c1cn(N2CCOCC2)n[o+]1` [molsidomine], for which, under setting [2], the ATP is −0.269.

Turning to `COc1ccc([C@H]2COc3cc(O)ccc3C2)c(OC)c1O` [mucronulatol], the “ATP (composite Z-score)” value (Conc 20 μM) is given as −0.648.

Under setting [5], `COc1ccc2c(c1)O[C@@H]1COc3cc(OC)c(OC)cc3[C@@H]1C2=O` [mundoserone, reference compound] gave an ATP of −1.275.

As for `COc1c(-c2coc3cc4c(cc3c2=O)CC(O)C(C)(C)O4)ccc2c1C=CC(C)(C)O2` (stereo not shown) [mundulone, reference compound], the ATP under setting [1] is −4.544.

For `c1cncc(C2=NCCC2)c1` [myosmine], the “ATP (composite Z-score)” value (Conc 27.36 μM) worked out at 2.062.

On to `COc1ccc2cc([C@H](C)CO)ccc2c1` [naproxol], for which the ATP under setting [3] amounted to 0.350.

In the case of `NC[C@@H]1O[C@H](O[C@H]2[C@@H](O)[C@H](O[C@@H]3[C@@H](O)[C@H](N)C[C@H](N)[C@H]3O[C@H]3O[C@H](CN)[C@@H](O)[C@H](O)[C@H]3N)O[C@@H]2CO)[C@H](N)[C@@H](O)[C@@H]1O` [neomycin], the ATP under setting [3] is recorded as −1.028.

With `CC(=O)OC1CCC2(C)C(CCC3C2CCC2(C)C3CC3OC4(CCC(C)CO4)C(C)C32)C1` (stereo not shown) [neotigogenin acetate], under setting [1], the ATP was −0.797.

For `c1ccc2c3c([nH]c2c1)[C@H]1[C@H]2CC[C@H]([C@@H]4CCCN[C@@H]42)N1CC3` [nitrarine], the ATP (composite Z-score vs mock-treated (DMSO) wells, concentration of each compound in μM) is reported as −0.894.

Take `NC(=O)N/N=C/c1ccc([N+](=O)[O-])o1` [nitrofural]: the ATP (composite Z-score vs DMSO, Conc 20.18 μM) came to 1.443.

As for `NC(=O)N/N=C/c1ccc([N+](=O)[O-])o1` [nitrofurazone], the ATP under setting [3] came to 1.199.

With `NC(=O)c1cc([N+](=O)[O-])cc([N+](=O)[O-])c1` [nitromide], the ATP under setting [4] is recorded as 0.548.

Under setting [1], `CCCCC[C@H](CC(=O)O)C(=O)O` [nonic acid] showed an ATP of 0.366.

Turning to `Cc1cc(O)c(C=O)c2c1C(=O)Oc1c(C)c(O)c3c(c1O2)C(O)OC3=O` (stereo not shown) [norstictic acid], the ATP worked out at 0.430 under setting [3] and 2.102 under setting [5].

Regarding `C[C@@H]1[C@H](O)[C@@H](C)/C=C/C=C/CC/C=C/C=C/C=C/C=C/C(O[C@H]2O[C@H](C)[C@@H](O)[C@H](N)[C@@H]2O)CC2O[C@](O)(CC(O)C(O)CCC(O)CC(O)CC(O)CC(=O)O[C@H]1C)CC(O)C2C(=O)O` (stereo partly shown) [nystatin], under setting [3], the ATP is listed as 0.843.

Compound `CC1(C)OC(=O)C=CC2(C)C1CC(O)C1(C)C2CCC2(C)C(c3ccoc3)OC(=O)C3OC321` (stereo not shown) [obacunol] gave an ATP under setting [5] of 1.116.

In turn, `COC1=CC(=O)C(O)=C/C1=C\C=C\c1ccccc1` [obtusaquinone] gave an ATP under setting [3] of −8.654.

Turning to `C[C@@H]([C@H]1OC(C)(C)[C@@H](O)[C@H]1O)[C@@H]1CC[C@]2(C)C3=CC[C@H]4C(C)(C)C(=O)CC[C@]4(C)[C@H]3CC[C@@]12C` [odoratone], under setting [5], the ATP was 0.474.

With `CC1(C)CC[C@]2(C(=O)O)CC[C@]3(C)C(=CC[C@@H]4[C@@]5(C)CC[C@H](O)C(C)(C)[C@@H]5CC[C@]43C)[C@@H]2C1` [oleanoic acid], the ATP under setting [5] was determined as 1.083.

Under setting [5], `Cc1cc(O)cc(O)c1C(=O)O` [orsellinic acid] came in with an ATP of −1.140.

Turning to `C[C@@H]1O[C@@H](O[C@H]2C[C@@H](O)[C@]3(CO)[C@H]4[C@H](O)C[C@]5(C)[C@@H](C6=CC(=O)OC6)CC[C@]5(O)[C@@H]4CC[C@]3(O)C2)[C@H](O)[C@H](O)[C@H]1O` [ouabain], the ATP under setting [3] stood at 0.320.

For the compound `Cc1onc(-c2ccccc2)c1C(=O)N[C@@H]1C(=O)N2[C@@H]1SC(C)(C)[C@@H]2C(=O)[O-].[Na+]` [oxacillin sodium], the ATP under setting [3] is on record as −0.038.

Under setting [2], `CCn1cc(C(=O)O)c(=O)c2cc3c(cc21)OCO3` [oxolinic acid] registered an ATP of 0.276.

As to `COC[C@]12CN(C=O)[C@@H]3[C@@H]4[C@H](OC)[C@H]1[C@@]3([C@@H](OC)C[C@H]2O)[C@@H]1C[C@@]2(O)[C@H](OC(=O)c3ccccc3)[C@@H]1[C@]4(OC(C)=O)[C@@H](O)[C@@H]2OC` [oxonitine], the ATP under setting [5] came to 0.116.

Consider `NNC(=O)c1ccncc1.Nc1ccc(C(=O)O)c(O)c1` [pasiniazid], for which the ATP under setting [3] amounted to 1.328.

`COc1ccc(-c2cc(=O)c3c(O)c(OC)c(O[C@@H]4O[C@H](CO[C@@H]5O[C@@H](C)[C@H](O)[C@@H](O)[C@H]5O)[C@@H](O)[C@H](O)[C@H]4O)cc3o2)cc1` [pectolinarin] displayed an ATP under setting [1] of −0.465.

Consider `CN1C(C)(C)CCCC1(C)C` [pempidine], for which, under setting [3], the ATP was 0.192.

Compound `CC1(C)S[C@@H]2[C@H](NC(=O)COc3ccccc3)C(=O)N2[C@H]1C(=O)O` [penicillin V] returned an ATP under setting [4] of 0.818.

In the case of `C[N+]1(CCCCC[N+]2(C)CCCC2)CCCC1` [pentolinium], the ATP is 1.449 (composite Z-score vs DMSO, Conc 10.24 μM) and 0.247 under setting [3].

Under setting [4], `CC(=O)CCCCn1c(=O)c2c(ncn2C)n(C)c1=O` [pentoxifylline] returned an ATP of −0.027.

With `CO[C@H]1[C@H](O)[C@H](O[C@H]2CC[C@@]3(C=O)[C@H](CC[C@@H]4[C@@H]3CC[C@]3(C)[C@@H](C5=CC(=O)OC5)CC[C@]43O)C2)O[C@@H](C)[C@@H]1O` [peruvoside], the ATP under setting [2] was 0.065.

On to `CC(C)=CCc1c(O)cc2oc(C)cc(=O)c2c1O` [peucenin], for which, under setting [5], the ATP is recorded as 0.465.

As to `CCOc1ccc(NC(C)=O)cc1` [phenacetin], under setting [2], the ATP is 1.310.

For the compound `Nc1ccc(/N=N/c2ccccc2)c(N)n1` [phenazopyridine], the ATP is on record as −0.676 (18.76 μM, composite Z-score vs DMSO) and 0.077 under setting [4].

Consider `CC(COc1ccccc1)N(CCCl)Cc1ccccc1` (stereo not shown) [phenoxybenzamine], for which the ATP reads like this: (13.16 μM, composite Z-score vs DMSO) 0.878; under setting [4], 0.340.

Turning to `CNC[C@H](O)c1cccc(O)c1` [phenylephrine], the ATP is −0.455.

As for `OC[C@H]1O[C@@H](Oc2cc(O)cc(/C=C/c3ccc(O)cc3)c2)[C@H](O)[C@@H](O)[C@@H]1O` [piceid], the “ATP (composite Z-score)” value (Conc 20 μM) is recorded as 1.229.

Turning to `CC(C)(O)[C@@H]1[C@H]2OC(=O)[C@@H]1[C@]1(O)C[C@H]3O[C@]34C(=O)O[C@H]2[C@]14C` [picrotin], under setting [4], the ATP came out at 0.205.

Under setting [2], `C=C(C)[C@@H]1[C@H]2OC(=O)[C@@H]1[C@]1(O)C[C@H]3O[C@]34C(=O)O[C@H]2[C@]14C` [picrotoxinin] displayed an ATP of 0.141.

Turning to `O=c1[nH]c2ccccc2n1C1CCN(CCCC(c2ccc(F)cc2)c2ccc(F)cc2)CC1` [pimozide], the ATP was −0.856 (composite Z-score vs DMSO, Conc 8.66 μM) and −0.464 under setting [3].

`CC(N/C(=N\C#N)Nc1ccncc1)C(C)(C)C` (stereo not shown) [pinacidil] showed an ATP under setting [3] of −0.566.

Take `CCn1cc(C(=O)O)c(=O)c2cnc(N3CCNCC3)nc21` [pipemidic acid]: the ATP under setting [2] was determined as 0.849.

Regarding `CC[N+]1(C)CCCC(OC(=O)C(O)(c2ccccc2)c2ccccc2)C1` (stereo not shown) [pipenzolate], the ATP under setting [2] is 1.043.

The compound `CCN1CCN(C(=O)N[C@@H](C(=O)N[C@@H]2C(=O)N3[C@@H]2SC(C)(C)[C@@H]3C(=O)O)c2ccccc2)C(=O)C1=O` [piperacillin] had an ATP under setting [3] of 0.634.

For the compound `Nc1ccc(C(=O)[O-])cc1.[K+]` [potassium p-aminobenzoate], under setting [4], the ATP is −0.299.

Take `CC[C@H](C)C(=O)O[C@H]1C[C@H](O)C=C2C=C[C@H](C)[C@H](CC[C@@H](O)C[C@@H](O)CC(=O)O)[C@H]21` [pravastatin, reference compound]: the “cellular ATP levels, dose response” value (doses ranging up to 40 μM, 48 hours, FIG. 10) was “little to no effect”.

As for `C[C@]12C=CC(=O)C=C1CC[C@@H]1[C@@H]2C(=O)C[C@@]2(C)[C@H]1CC[C@]2(O)C(=O)CO` [prednisone], the ATP under setting [2] is on record as 0.376 and the ATP (composite Z-score vs DMSO, Conc 11.16 μM) is 0.358.

Regarding `COC(=O)[C@]1(C)CC[C@]2(C)CC[C@]3(C)C4=CC=C5C(=CC(=O)C(O)=C5C)[C@]4(C)CC[C@@]3(C)[C@@H]2C1` [pristimerin], under setting [3], the ATP is listed as −8.234.

`CC(C)(Sc1cc(C(C)(C)C)c(O)c(C(C)(C)C)c1)Sc1cc(C(C)(C)C)c(O)c(C(C)(C)C)c1` [probucol] showed an ATP under setting [2] of −0.915.

In turn, `CCCN(CCC)C(=O)C(CCC(=O)O)NC(=O)c1ccccc1` (stereo not shown) [proglumide] had an ATP under setting [4] of 1.059.

(Values after patent publication US20090143279A1 (priority 2007, published 2009).)
